# Reference: PMC12040169 (PLOS Biology, 2025)
# Some of the results follow.
# Tested on: T1, C. trachomatis L2/434/Bu expressing GFP (CTL2-GFP)
# T1 construct: L2/434/Bu GFP intracellular growth in HeLa cells
# Set-up: species or system HeLa; C. trachomatis total inclusion area by high-content imaging, normalised to DMSO
# Conditions: total inclusion area; 28.5 h, 10 µM; inhibitor
# Method in brief: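 High-content images of fixed, Hoechst-stained infected cultures supply inclusion area and count (growth) plus nuclei number (viability), complementing bulk GFP/resorufin fluorescence. MIC determination is unchanged from the primary assay.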
row,Structure (SMILES),% of control remaining
1,COc1cc([N+](=O)[O-])ccc1-c1ccc(/C=c2\sc3nc4cc(Br)cnc4n3c2=O)o1 [CBK262579],84.7083
2,CC1CN(c2ccccc2Br)NC1=O (stereo not drawn) [CBK026500],27.8711
3,Cc1cc(C(=O)N2CCN(C(=O)c3cn(Cc4ccc(S(C)(=O)=O)cc4)nn3)CC2)n(C)n1 [CBK160824T],97.9152
4,CC(=O)NC(CC(=O)N1CCCC(n2cccn2)C1)c1cccs1 (stereo not drawn) [CBK305405],25.1095
5,COc1nccc(N2CCN(C)C3(CCNC(=O)CC3)C2)c1C#N (stereo not drawn) [CBK307676],106.776
6,O=C(O)CNC(=O)/C(=C\c1ccco1)NC(=O)c1ccccc1Cl [CBK263967],104.491
7,Cc1c(C)n(CC(=O)O)c2ccccc12 [CBK000884],64.0967
8,O=C1/C(=C/c2ccccc2)S/C(=N/N=C/c2ccccc2)N1c1ccc(O)cc1 [CBK262803],115.591
9,Cc1cc(OC(C)C(=O)Nc2ncccc2C)ccc1Cl (stereo not drawn) [CBK269637],87.0339
10,O=S1(=O)N=C(Nc2ccc(S(=O)(=O)N3CCOCC3)cc2)c2ccccc21 [CBK269116],83.1047
11,O=C(c1ccc(-c2cncc(-c3cc4ccccc4[nH]3)c2)cc1)N1CCOCC1 [CBK158419T],95.244
12,O=C(O)CNS(=O)(=O)c1ccc2ccccc2c1 [CBK034460],108.926
13,Cn1c(SCCN2CCOCC2)nnc1-c1cccs1 [CBK010243],16.0023
14,CS(=O)(=O)N(CC(=O)NCc1ccccn1)c1ccc(I)cc1 [CBK265369],111.856
15,O=C(Nc1nc(OCCN2CCCC2=O)cnc1/C=C\c1ccccc1)c1cc2ccccc2s1 [CBK145380],67.4944
16,CC(C)(C)NC(=O)NCC(c1ccc[nH]1)C(F)(F)F (stereo not drawn) [CBK021595],83.8919
17,Cc1c(C(=O)O)sc2nc(C=Cc3ccc(OCCC(C)C)cc3)[nH]c(=O)c12 [CBK297539],107.823
18,c1ccc(C(NCc2cnc(-c3cnccn3)s2)C2CCC2)cc1 (stereo not drawn) [CBK304016],64.2666
19,Brc1cccc(OCc2cccs2)c1 [CBK176011],35.5722
20,CC(C)(O)C#Cc1ccccc1C(=O)NC(Cc1c[nH]c2ccccc12)C(=O)O (stereo not drawn) [CBK267701],110.336
21,CCOc1ncccc1NC(=O)C(C)n1cccn1 (stereo not drawn) [CBK245377],98.3764

row,Structure (SMILES),% of control remaining
1,Cc1ccc(-n2c(SCC(N)=O)nnc2-c2ccccc2O)c(C)c1 [CBK269673],104.823
2,O=C(O)c1ccc(S(=O)(=O)Nc2nnc(C(F)(F)F)s2)cc1 [CBK062023],107.227
3,COc1ccc(-c2nccnc2OC)c(OC)c1 [CBK107039],109.175
4,CC1(C)CCCC2=C1CC(C(=O)O)C(C(=O)NCc1cccnc1)C2 (stereo not drawn) [CBK286795],88.5066
5,O=C(O)C1CCCN(C(=O)NCc2ccc(F)cc2)C1 (stereo not drawn) [CBK161364],63.5472
6,O=C(CN1C(=O)S/C(=C\c2ccccc2OCc2ccccc2)C1=O)c1ccc(Cl)cc1 [CBK264628],97.4254
7,CCN1C(=O)CC2(C1=O)C(=O)N(CCCOc1ccc(Cl)cc1)c1ccc(C)cc12 (stereo not drawn) [CBK075648],108.922
8,Cc1cc(C)n(-c2ccc3nnc(CCC(=O)Nc4nccs4)n3n2)n1 [CBK307617],91.4524
9,COc1ccccc1CC(=O)N1CCn2cc(C(F)(F)F)nc2C1 [CBK283806],88.3372
10,CCCCSc1nnc(NS(=O)(=O)c2ccc(NC(C)=O)cc2)s1 [CBK022853],90.1765
11,CC(C)(C)c1ccc(-n2cc(-c3ccc(F)cc3F)nn2)cc1 [CBK094818],76.1169
12,CC1(C)CC(=O)C=C(C(=O)Nc2c(F)cc(F)cc2OC2CCNCC2)O1 [CBK050332T],34.4737
13,CN(C)c1oc(-c2ccccc2)nc1S(=O)(=O)c1ccccc1 [CBK021477],69.7858
14,COc1ccc(S(=O)(=O)NC(C)C(=O)NCc2ccncc2)cc1 (stereo not drawn) [CBK269441],78.0044
15,COc1ccc(S(=O)(=O)N(CC(=O)O)c2ccc(Cl)cc2)cc1OC [CBK267836],111.921
16,O=C(Cc1cn2ccsc2n1)NCCCN1CCCc2ccccc21 [CBK306611],85.4629
17,Cc1oc2ccc(O)cc2c1C(=O)N(C)CCOc1ccccc1 [CBK282696],132.307
18,N=C1NC(=O)/C(=C/c2ccc(OC(=O)c3cccc([N+](=O)[O-])c3)cc2)S1 [CBK263606],109.708
19,Nc1ncnc2[nH]c(SCc3nc4ccc(I)cc4c(=O)n3-c3ccccc3)nc12 [CBK267174],99.8167
20,O=C(CC(C(=O)O)n1cccn1)c1ccc(Br)cc1 (stereo not drawn) [CBK269541],125.504
21,O=C(NCc1ccco1)c1cc(S(=O)(=O)N2CCOCC2)ccc1Br [CBK269907],102.742

row,Structure (SMILES),% of control remaining
1,N=C1NC(=O)/C(=C/c2cccc(OCCOc3ccc(C4CCCCC4)cc3)c2)S1 [CBK263956],101.311
2,CCN(Cc1cn2cccc(C(=O)OC)c2n1)CC1CCOC1 (stereo not drawn) [CBK304880],45.9162
3,Cc1nc2ccc(NC(=O)CC3CCN(C(=O)CC4CCCCC4)CC3)cc2[nH]1 [CBK285967],151.676
4,CN(c1ncc(Br)cc1C(=O)NC1CCCCC1)S(C)(=O)=O [CBK076531],77.2253
5,CC(C(=O)NCCn1nc(-c2ccco2)ccc1=O)c1ccccc1 (stereo not drawn) [CBK283861],99.146
6,COc1cccc(-n2cnc3cccc(N)c32)c1 [CBK022114],78.317
7,Cn1cncc1C(=O)NC1CCCC1 [CBK200256],80.1333
8,COCc1cc(=O)oc2cc(NS(C)(=O)=O)ccc12 [CBK008516],69.1974
9,Cc1ccc(C)n1-c1ccc(C(=O)OCC(=O)c2cccc([N+](=O)[O-])c2)cc1 [CBK264427],95.527
10,Cc1ccc(-c2nnc(CNC(=O)c3cccc(-c4ccc(F)cc4)c3)o2)s1 [CBK286300],103.742
11,Cc1cc(C)nc(NC(=O)C2C3C=CC(C3)C2C(=O)O)c1 (stereo not drawn) [CBK058843],70.8468
12,Cc1cc(/C=C(/C#N)c2nc3ccccc3[nH]2)c(C)n1-c1ccc(S(N)(=O)=O)cc1 [CBK264769],108.53
13,COc1ccc(NS(=O)(=O)c2ccc(N3CCCC3=O)cc2)cn1 [CBK270216],54.1367
14,CN1CCN(C(=O)CSc2nnc(COc3ccccc3)o2)CC1 [CBK268970],95.0246
15,O=[N+]([O-])c1ccc(S(=O)(=O)Nc2cccc3[nH]ccc23)cc1 [CBK159550],82.467
16,Cc1cc(C(=O)N2CCn3cnnc3C2)c(C2CC2)o1 [CBK282059],81.3146
17,COc1cccc(C(=O)NCCC(=O)N2CCN(C)CC2)c1 [CBK304663],80.5718
18,CCc1noc(C)c1C(=O)NCC1CCCCN1CC (stereo not drawn) [CBK282201],100.391
19,O=C(Cn1ncn2c(cc3ccsc32)c1=O)NCc1cccs1 [CBK284197],60.884
20,Cc1cc(C2CCCCCN2C(=O)c2c(Cl)cnn2C)on1 (stereo not drawn) [CBK283045],72.2999
21,O=C(c1ccccc1)N1CCN(Cc2cc(=O)n3ccsc3n2)CC1 [CBK306095],68.5761

row,Structure (SMILES),% of control remaining
1,O=C(Nc1cc(-c2nc3ncccc3o2)ccc1Cl)c1ccc(-c2ccccc2[N+](=O)[O-])o1 [CBK264097],114.487
2,Nc1nc(N)c2cc(C(F)(F)F)ccc2n1 [CBK025934],16.181
3,C[C@@H](Nc1nccnc1-c1cccnc1)c1ccccc1 [CBK036759],73.6873
4,O=C1Nc2ccccc2C(O)(C(=O)NCc2ccccc2)N1c1ccccc1 (stereo not drawn) [CBK288555],89.8634
5,N=C1NC(=O)/C(=C\c2ccc(-c3ccc(Br)cc3)o2)S1 [CBK261409],59.1449
6,O=C(O)CCCN1C(=O)C(O)=C(C(=O)c2ccccc2)C1c1ccccc1 (stereo not drawn) [CBK262924],106.331
7,CCOCCN(CCOCC)c1nnc2ccc(Cl)nn12 [CBK010024],77.0942
8,Cc1cc(-c2ccccc2)nn(CCN2CCOCC2)c1=O [CBK023022C],11.3294
9,COc1cc(C(=O)N2CCC3(CC2)CC(=O)c2cc(C)c(C)cc2O3)ccc1C [CBK164202],108.587
10,COc1ccc(C2(C(=O)NCCc3ccc(O)cc3)CC2)cc1 [CBK149833],92.436
11,Cc1ccc(CN2CC[C@@H]3[C@H](C2)[C@@H](c2ccsc2)CN3C(=O)c2ccccc2F)cc1 [CBK285658],74.0505
12,c1ccc2oc(NC3=NCN(Cc4ccc5c(c4)OCO5)CN3)nc2c1 [CBK267964],99.6273
13,Cc1cc(C)n(CCCC(=O)N2CCC3(CCCO3)CC2)n1 [CBK304397],68.9855
14,CCC1CN(c2cc(CO)c(F)cn2)CC2(CCOC2)O1 (stereo not drawn) [CBK304757],46.9516
15,CC(=O)Nc1cccc(OCC(=O)Nc2ccc(C)c(C)c2)c1 [CBK265429],104.447
16,COC(=O)c1sc2cc(C(F)(F)F)cnc2c1NC(=O)C1COc2ccccc2O1 (stereo not drawn) [CBK115865],90.9032
17,COc1ccc2c(c1)c(C(C(=O)O)N1CCN(c3ccccn3)CC1)cn2CC(=O)O (stereo not drawn) [CBK286637],110.489
18,COc1ccc(C2(C(=O)N3CCN(C)CC3)CC2)cc1 [CBK149837],98.5277
